“And” between values parts separate entries of the source, which are not always exact repeats. Identical values can stand only once.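 Values below derive from 48-hour exposures of cells grown in 96-well plates, with endpoints linearly interpolated between the two concentrations bracketing the appropriate inhibition level. The concentration for 50% growth inhibition is given as GI50. TGI is the concentration that stops growth completely.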
system: NCI-H322M lung; assay: inhibition of tumour cell growth, NCI panel, 48 h

| Structure (SMILES) | TGI | GI50 |
| --- | --- | --- |
| O=C1CCC2COc3ccc(O)c1c32 (centres undefined) | > 100 µM | – |
| CC(C)=CCc1cc(/C=C/C(=O)O)cc(CC=C(C)C)c1O | > 100 µM | – |
| COc1cc(N2CCC(N)CC2)ccc1Nc1ncc(Cl)c(-c2c[nH]c3ccccc23)n1 | 4.01 µM | 238 nM |
| C#CCn1c(=O)ccn(/C(=C/C(=O)OCC)C(=O)OCC)c1=O | > 100 µM | – |
| c1ccc(CC(Nc2cccnc2)c2ccccc2)cc1 (centres undefined) | > 100 µM | – |
| Cc1c(Cl)c(C)c(Cl)c(O)c1Cl | > 100 µM | – |
| C=C(Br)COc1ccc2c(C)cc(=O)oc2c1 | > 100 µM | – |
| CN(C)CCCCNc1ccc(NCCCCN(C)C)c2c1C(=O)c1c(O)ccc(O)c1C2=O | 2.9 µM | 1540 nM |
| COc1ccc(/C=C\c2cc(OC)c(OC)c(OC)c2)c(NS(=O)(=O)c2ccc(F)cc2)c1O | > 100 µM | 200 nM |
| OC(Cc1cc(CC(O)(C(F)(F)F)C(F)(F)F)nc(CC(O)(C(F)(F)F)C(F)(F)F)c1)(C(F)(F)F)C(F)(F)F | > 10 µM | – |
| COC(=O)C(C(=O)C(=O)Nc1ccccc1C)c1nc2ccc([N+](=O)[O-])cc2[nH]c1=O (centres undefined) | > 100 µM | – |
| NC1(C(=O)N[C@@H](CCO)c2ccc(Cl)cc2)CCN(c2ncnc3[nH]ccc23)CC1 | > 100 µM | > 2100 nM and 25200 nM |
| Nc1c(C(=O)Nc2cccc(C(F)(F)F)c2)sc2nc3c(cc12)CCCCCC3 | 28.6 µM | 4960 nM |
| Cc1c(C#N)c2nc3ccccc3n2c(=O)/c1=C/Nc1ccc(Cl)cc1 | > 100 µM | – |
| CC[C@@]1(O)C(=O)OCc2c1cc1n(c2=O)Cc2c-1nc1cc(F)c(C)c3c1c2[C@@H](NC(=O)CO)CC3 | > 27.2 µM | 78.4 nM |
| CC(C)C(/C=C/c1ccc(Cl)cc1)=N\NC(=O)N/N=C(/C=C/c1ccc(Cl)cc1)C(C)C | 95.9 µM | – |
| COc1cc(CC(=O)O)c([N+](=O)[O-])cc1OC | > 100 µM | – |
| c1ccc(/C(=N/Nc2ccccn2)c2cccnn2)cc1 | > 100 µM | – |
| CCCCCCCCCCCCc1ccsc1-c1ccc(-c2ccc(-c3sccc3CCCCCCCCCCCC)s2)s1 | > 100 µM | – |
| Nc1ncnc2c1ccn2-c1cccc(NC(=O)c2ccc(N3CCOCC3)c(C(F)(F)F)c2)c1 | 9.6 µM | 3010 nM |
| O=c1n(CC2CS2)c2ccccc2n1CC1CS1 (centres undefined) | > 100 µM | – |
| O[C@@]12Cc3c([nH]c4ccccc34)[C@@H]3Oc4c(-c5ccccc5)ccc5c4[C@@]31CCN(CC1CC1)[C@@H]2C5 | 3.71 µM | – |
| O=C1OCC2=C1C(c1cccc(Cl)c1)c1cc3c(cc1N2CCO)CCC3 (centres undefined) | 16.9 µM | 194 nM |

| Structure (SMILES) | TGI | GI50 |
| --- | --- | --- |
| O=C(CC(C(=O)c1cccs1)c1ccc2c(c1)OCO2)c1ccccc1 (centres undefined) | > 100 µM | – |
| COC(=O)c1cccc(NC(=O)c2ccc(NC3=C(Cl)C(=O)N(Cc4ccccc4)C3=O)cc2)c1 | 38.5 µM | 18800 nM |
| Nc1cc(N)c2nc(NCCc3ccc(Cl)c(Cl)c3)cnc2c1 | 32.5 µM | 17300 nM |
| COc1ccc(/C=C/C(=O)CCN2CCN(CCC(=O)/C=C/c3ccc(OC)cc3)CC2)cc1 | 69.5 µM | – |
| O=C(Nc1ccc(F)cc1)c1cc2c(cc1Cl)Sc1nccn1S2(=O)=O | > 100 µM | – |
| Cc1[nH]nc(C(=O)N/N=C/c2ccccc2Cl)c1N=NN(C)C | > 100 µM | – |
| O=C(/C=C/C=C/c1ccc2c(c1)OCO2)N/N=C\c1ccc(O)cc1O | 16.8 µM | 1740 nM |
| Cc1cc(-c2cc(OC(=O)c3ccccc3)ccc2Cl)cc2nnc(Nc3ccc(OCCN4CCCC4)cc3)nc12 | 3.03 µM | 1660 nM |
| N=c1oc2cc(O)ccc2cc1C(=O)Nc1cccc2ccccc12 | 30.6 µM | – |
| Cn1c(=O)c2c(=O)cc(N)[nH]c2n(C)c1=O | > 100 µM | – |
| Cc1cc(C)c(/C=N/NS(=O)(=O)c2ccccc2)c(C)c1 | > 100 µM | – |
| Cn1c(=O)cc(Nc2ccc(N)cc2)[nH]c1=O | > 100 µM | – |
| Cn1c(=S)[nH]c(N)c(Cc2ccccc2)c1=O | > 100 µM | – |
| CC(C)[Si](Oc1ccc(CC2N(C(=O)c3ccc([N+](=O)[O-])cc3)C(CCc3ccccc3)CC2(C)C=O)cc1)(C(C)C)C(C)C (centres undefined) | > 100 µM | – |
| CC1CC(=O)Nc2ccccc2N1C(=O)C1CC1 (centres undefined) | > 100 µM | – |
| O=C(CN1CCN(C(=O)c2ccco2)CC1)Nc1ccc(Cl)cc1C(=O)c1ccccc1Cl | 26.5 µM | 12500 nM |
| Nc1nc(N)c2c(n1)CCC(S(=O)(=O)c1ccc3ccccc3c1)C2 (centres undefined) | > 95.6 µM | – |
| COC(=O)[C@H](Cc1ccccc1)NC(=O)N(CCNC(=O)OC(C)(C)C)c1ccccc1 | > 100 µM | – |
| c1ccc2c(c1)-c1ccccc1C2NC1=NCCO1 | > 100 µM | – |
| COC(=O)Nc1nc2ccc(C(=O)c3ccc(F)cc3)cc2[nH]1 | > 100 µM | 1010 nM |
| O=C(Nc1ccc(Cl)cc1)c1cc(S(=O)(=O)N2CCNNC2=O)c(S)cc1Cl | > 100 µM | – |
| COc1cccc(/C=N/[N-]C(N)=O)c1[O-].[Co+2].[OH3+].c1ccncc1 | > 100 µM | – |
| CC(=O)OCC1OC(O[C@H]2C=C[C@@H](C(=O)OCc3ccccc3)n3c(=O)n(-c4ccccc4)c(=O)n32)C(OC(C)=O)C(OC(C)=O)C1OC(C)=O (some centres undefined) | 33.9 µM | – |

| Structure (SMILES) | TGI | GI50 |
| --- | --- | --- |
| O=C1CN(c2ccccc2)C(=O)CN1NCNN1CC(=O)N(c2ccccc2)CC1=O | > 100 µM | – |
| O=C(O)CCC1c2[nH]c3ccccc3c2CCN1Cc1ccccc1 (centres undefined) | > 100 µM | – |
| CCOC(=O)CC1Nc2ccccc2C12CCc1c([nH]c3ccccc13)C2C(=O)OCC (centres undefined) | > 100 µM | – |
| CC[As](CC)SCC1OC(OC(C)=O)C(OC(C)=O)C(OC(C)=O)C1OC(C)=O (centres undefined) | 33.3 µM | – |
| COc1ccc([C@@H]2OC(=O)C3C2C(=O)O[C@H]3c2ccc(OC)cc2)cc1 (some centres undefined) | > 100 µM | – |
| O=C(NN1C(=O)CSC1c1c(Cl)cccc1Cl)C(O)c1ccccc1 (centres undefined) | > 100 µM | 65900 nM |
| CC#CC#C/C(=C/C=CC(=O)OC)SC | > 100 µM | – |
| O=C(N/N=C/c1ccncc1)c1ccc(F)cc1 | > 40 µM | > 40000 nM |
| CC/C(=C(/c1ccc(OCCN(C)C)cc1)c1ccc(OC(=O)CCCCCCCCC(=O)c2c(C)[nH]c(/C=C3\N=C(c4ccc[nH]4)C=C3OC)c2C)cc1)c1ccccc1 | > 100 µM | > 100000 nM |
| O=c1/c(=C\c2ccc(Br)cc2)sc2n1C(c1ccc(Br)cc1)C1=C(N=2)c2ccc3ccccc3c2OCC1 (centres undefined) | > 100 µM | 1990 nM |
| COc1cc2c(cc1OCCCN1CCN(C(=S)SCCC(C#N)(c3ccccc3)c3ccccc3)CC1)N=C[C@@H]1CCCN1C2=O | 4.53 µM | 2090 nM |
| Fc1ccc(N=C2C=CC(=Nc3ccc(F)cc3)c3ccccc32)cc1 | > 100 µM | – |
| COc1cc2c(cc1[N+](=O)[O-])C(=O)C(Br)(Br)CCC2 | 30.1 µM | – |
| Cc1cc(=O)oc2c(C)c3oc(CBr)cc3cc12 | 71.4 µM | – |
| O=C1c2ccccc2C(=O)N1NC1=NCCN1 | > 100 µM | – |
| COc1ccc(Nc2cc(=O)[nH]c(=O)[nH]2)cc1 | > 100 µM | – |
| CC(C)c1c(O[Si](C(C)C)(C(C)C)C(C)C)cc2c(c1O)CC[C@H]1C(C)(C)CCC[C@]21C | > 100 µM | – |
| Cc1cnc(-c2ccc(-c3ccc(NC(=O)Nc4c(F)cc(F)cc4F)cc3F)c3c2C(=O)NC3)[nH]1 | 9.97 µM and 13.1 µM | 1100 nM and 956 nM |
| O=C1OC(c2ccccc2Br)=N/C1=C/c1ccccc1 | > 100 µM | – |
| CCOc1ccc2c(c1)C(=O)c1c-2n(CCCN=[N+]=[N-])c(=O)c2cc([N+](=O)[O-])ccc12 | > 100 µM | 18000 nM |
| Cc1cccc(N=N/C(=N\NC(=O)c2cc(Cl)ccc2O)c2ccc(N(CCC#N)CCC#N)cc2C)c1 | 94.9 µM | – |
| CC(=O)Oc1cc(-c2oc3cc(OC(C)=O)c(C4OC(CO)C(O)C(O)C4O)c(OC(C)=O)c3c(=O)c2O)c(OC(C)=O)cc1O (centres undefined) | > 100 µM | – |

Source: PubChem BioAssay (NCI)
